Measurements published in PubChem BioAssay AID686971 (National Center for Advancing Translational Sciences (NCATS), 2013).
Out of some 360,000 compounds screened, about 7,500 (2.1%) were called active. This list was built around the results that the source calls inconclusive (neither active nor inactive); the mix of calls is not that of the screen. Calls follow the shape of the dose curve; as a rule, active = well fitted cell-killing curve with a large enough effect; inconclusive = small, poorly fitted or top-dose-only effect, or effect the other way, or another doubt; inactive = no such curve, though single readings can be large or run the other way. Potencies of inconclusive entries are left out as doubtful fits.

Assay: qHTS for induction of synthetic lethality in tumor cells producing 2HG: qHTS for the HT-1080-IDH1KD cell line;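 as to activity, negative = toxicity: 0% = DMSO wells and -100% = cell-free medium wells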
Details: HT-1080 IDH1 knockdown viability, ATP luminescence, 48 h; activity, negative = toxicity: at 46.1 µM (top of the series) unless noted
Summary of the method: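 In this qHTS, HT-1080 cells depleted of IDH1 are exposed for 48 h at 37 °C to compound titrations. Toxicity is scored from CellTiter-Glo luminescence, with DMSO as full viability and medium alone as none.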
Potency is read from the fitted curve at half-maximal effect; tags tell the direction and shape of the fitted curve.

| Structure (SMILES) | Potency | activity, negative = toxicity |
| --- | --- | --- |
| COc1cccc(C(C(=O)NCC2CCCO2)N(C(=O)Cn2nnc3ccccc32)c2ccccc2C(C)=O)c1OC (stereo not given) | inactive |  |
| Cc1cccc(CCN(C(=O)c2csnn2)C(C(=O)NC2CCCC2)c2ccco2)c1 (stereo not given) | inactive |  |
| CC[n+]1cc(C)ccc1/C=C/c1ccc(N(C)C)cc1 | active: 7.31 µM |  |
| O=C(Nc1ccccc1[N+](=O)[O-])c1cc(S(=O)(=O)N2CCOCC2)cs1 | inactive |  |
| OC(c1cccc(Cl)c1)c1nc(/C=C/c2ccc(C(F)(F)F)cc2)cs1 (stereo not given) | inconclusive [cytotoxic, single point] |  |
| O=C(Nc1cc(Sc2ccccn2)cc([N+](=O)[O-])c1)c1ccc(Cl)cc1 | inconclusive [cytotoxic, partial curve] |  |
| Cc1ccc(Cn2nnc3c(=O)[nH]c(C4CCN(S(=O)(=O)c5ccc(C)cc5)CC4)nc32)cc1 | inconclusive [cytotoxic, single point] |  |
| Cc1cccc(NC(=O)CSc2nnc(-c3ccco3)c(-c3ccco3)n2)c1C | inactive |  |
| OC(COc1ccc(Cl)cc1)CN1CCCCC1 (stereo not given) | inconclusive [cytotoxic, single point] |  |
| CC(O)(c1cccc(F)c1)c1nc(-c2cnc3ccccc3c2)cs1 (stereo not given) | inconclusive [cytotoxic, single point] |  |
| O=C(O)c1cc2nc(-c3ccccc3)cc(-c3ccccc3)n2n1 |  | inconclusive: -12.3% [cytotoxic] |
| Cc1ccc(C(NC(=O)NC(C)c2ccccc2)C(Cl)(Cl)Cl)cc1F (stereo not given) | inconclusive [cytotoxic, single point] |  |
| CC1(C)CC(=O)C2=C(C1)NC1=C(C(=O)c3ccccc31)C2c1ccc(Cl)cc1 (stereo not given) | active: 18.4 µM |  |
| C[C@H](NC(=O)c1[nH]cnc1C(=O)Nc1ccc(CNC(=O)OC(C)(C)C)cc1)C(=O)OCc1ccccc1 | inconclusive [cytotoxic, single point] |  |
| C=CCc1cccc(/C=N/NC(=O)CNc2ccccc2)c1O | active: 18.4 µM |  |
| Cc1cccc(NC(=O)c2sc3nc4c(c(-c5ccco5)c3c2N)CCC4)c1 | inconclusive [cytotoxic, single point] |  |
| Cc1onc(-c2ccccc2Cl)c1C(=O)N1CCN(c2ccccc2)CC1 | inactive |  |
| CC(C)c1ccc(/C=C/C(=O)NC(=S)Nc2ccc(CN3CCOCC3)cc2)cc1 | inconclusive [cytotoxic, single point] |  |
| CCOC(=O)[C@]12CCCC=C1N(Cc1ccc3c(c1)OCO3)C(=O)[C@H](CC(=O)NCCCN1CCCC1=O)C2 | inactive |  |
| COc1ccc(C=C2Cc3ccccc3C2=O)cc1 | inactive |  |
| O=c1c2ccccc2nc(/C=C/c2ccc3c(c2)OCO3)n1CCCO | active: 6.51 µM |  |
| CCOC(=O)c1nn(-c2ccc(Br)cc2)cc1C(=O)c1cccc2ccccc12 | inconclusive [cytotoxic, full curve] |  |
| COC(=O)c1sccc1NC(=O)c1cc(-c2ccc(C)cc2C)nc2ccccc12 | inactive |  |
| CCC(C)NCCCCOc1cc(C)cc(C(C)C)c1 (stereo not given) | inconclusive [cytotoxic, single point] |  |

| Structure (SMILES) | Potency | activity, negative = toxicity |
| --- | --- | --- |
| COc1cc(C2NC(=O)NC(C)=C2C(=O)OCc2ccc(C)cc2)cc(OC)c1OC (stereo not given) | inactive |  |
| Cn1cncc1C#Cc1ccc(N2C(c3ccsc3)=Cc3ccc(F)cc3C2c2c[nH]c3ccccc23)cc1 (stereo not given) | inconclusive [cytotoxic, partial curve] |  |
| CC1=C(C(=O)OC2CCCCCCC2)C(c2cc3c(cc2Br)OCO3)CC(=O)N1 (stereo not given) | inconclusive [cytotoxic, single point] |  |
| O=C(Cn1c(COc2ccccc2)nc2ccccc21)Nc1cccc(Cl)c1 | inconclusive [cytotoxic, single point] |  |
| O=C1[C@H]2CCCC[C@H]2C(=O)N1CCCCN1CCN(c2nsc3ccccc23)CC1 | inconclusive [cytotoxic, single point] |  |
| C#CCOc1ccc(C2C3=C(COC3=O)Nc3cc4c(cc32)OCO4)cc1OC (stereo not given) | active: 0.092 µM |  |
| COc1cccc(N2CCN(C(=O)c3ccc(CS(=O)c4ccccc4C)o3)CC2)c1 (stereo not given) | active: 0.731 µM |  |
| Cc1ccc(/C=N/NC(=O)COc2ccccc2-c2ccccc2)cc1 | inconclusive [cytotoxic, full curve, poor fit] |  |
| CC1C(=O)N(Cc2cn(Cc3ccco3)nn2)CCS(=O)(=O)N1Cc1ccc(-c2ccccc2C(F)(F)F)cc1 (stereo not given) | inconclusive [cytotoxic, single point] |  |
| COC(=O)c1cccc(OCCCN2CCC(C(O)(c3ccccc3)c3ccccc3)CC2)c1 | active: 16.4 µM |  |
| O=S(=O)(Nc1ccc(O)c2ccccc12)c1ccc(OC(F)(F)F)cc1 | active: 20.6 µM |  |
| CCOc1ccc(C(=O)/C=C/c2cn(CN3CCN(C)CC3)c3ccccc23)cc1 | inconclusive [cytotoxic, single point] |  |
| CCC(Cc1ccccc1)NC(=O)CSc1ccsc1[N+](=O)[O-] (stereo not given) | inactive |  |
| O=C(c1cccnc1)N1CCN(C(=O)c2ccccc2F)CC1 | inactive |  |
| O=C(Nc1cccc(C(F)(F)F)c1)c1cccnc1N1CCN(c2ccccc2)CC1 |  | inactive: -2.32% [at 9.24 µM] |
| COc1ccc([C@H]2CC(=O)C=C(c3ccc(C)c4ccccc34)C2)cc1 | inactive |  |
| NNC(=O)c1[nH]c2ccccc2c1-c1ccccc1 | active: 1.3 µM |  |
| COc1ccccc1-c1sc2ccccc2c1-c1ccc(OCCN2CCOCC2)cc1 | inconclusive [cytotoxic, single point] |  |
| CCn1c(CC(=O)Nc2ccc(C)cc2)nnc1SCC(=O)Nc1nc(C)cs1 | inconclusive [cytotoxic, single point] |  |
| Cc1cccc(N(CC(O)CON=C2c3ccccc3-c3ccccc32)S(C)(=O)=O)c1 (stereo not given) | inconclusive [cytotoxic, single point] |  |
| CC1Cc2cc(S(=O)(=O)CCC(=O)NCc3ccco3)ccc2N1C(=O)C1CC1 (stereo not given) | inconclusive [cytotoxic, single point] |  |
| O=C(N/N=C/c1cc([N+](=O)[O-])ccc1O)c1c[nH]c2ccccc12 | active: 14.6 µM |  |
| O=C(c1ccc(Cl)c(S(=O)(=O)N2CCCCC2)c1)N1CCCC1 | inactive |  |
| CCCOc1ccc(F)cc1-c1cc(C(=O)NCc2ccc(F)cc2)[nH]n1 | inactive |  |

| Structure (SMILES) | Potency | activity, negative = toxicity |
| --- | --- | --- |
| CCOC(=O)Cc1csc(NC(=O)CSc2nnc(-c3ccncc3)o2)n1 | inactive |  |
| COc1ccc(/C=C2\SC(=S)NC2=O)cc1OS(=O)(=O)c1ccc(NC(C)=O)cc1 | active: 16.4 µM |  |
| CCCCCCCN1C(N(C)C)=NC[C@@H]1Cc1ccccc1 | inconclusive [cytotoxic, single point] |  |
| O=C(c1ccc(CS(=O)Cc2cccc(Cl)c2)o1)N1CCN(c2ccc(F)cc2)CC1 (stereo not given) | inactive |  |
| CCCCOc1ccc(OCCNC(=O)c2ccco2)cc1 | inconclusive [cytotoxic, single point] |  |
| CCOC(=O)/C=C(\C)Sc1cc(O)c2ccccc2c1O | active: 23.1 µM |  |
| COC(=O)[C@@]12C[C@@H](CC(=O)N3CCC(c4ccccc4)CC3)C(=O)N(Cc3ccccc3)C1=CCC(C)(C)C2 | inconclusive [cytotoxic, single point] |  |
| COc1ccc(NS(=O)(=O)c2ccc(N3CCCC3=O)cc2)cn1 | active: 18.4 µM |  |
| COc1ccc(C(C(=O)NCc2ccccc2)n2c(-c3ccccn3)nc3ccccc32)cc1 (stereo not given) | inconclusive [cytotoxic, single point] |  |
| COc1cccc2c1C(=O)c1c(O)c3c(c(O)c1C2=O)CC(O)(C(C)=NNC(=O)c1ccc(Cl)c(Cl)c1)CC3OC1CC(N)C(O)C(C)O1 (stereo not given) | active: 1.16 µM |  |
| Cc1ccc(C)c(S(=O)(=O)N2CCCCC2CCNC(=O)C(=O)NCc2ccccc2)c1 (stereo not given) | inconclusive [cytotoxic, single point] |  |
| COc1ccccc1NS(=O)(=O)c1ccc(-c2cc(C)no2)s1 | inconclusive [cytotoxic, single point] |  |
| NS(=O)(=O)c1ccc(CCNC(=O)C2CCC(Cn3c(=S)[nH]c4ccccc4c3=O)CC2)cc1 (stereo not given) | inactive |  |
| O=C(Nc1ccc(F)cc1)C(c1ccnc2ccccc12)N1CCN(c2cccc(C(F)(F)F)n2)CC1 (stereo not given) | inconclusive [cytotoxic, single point] |  |
| Cc1ccc2c(c1)C(=O)N1[C@H]3c4cc(Br)ccc4OC[C@@H]3[C@H](c3ccccc3)[C@]1(C)C(=O)N2 | inconclusive [cytotoxic, single point] |  |
| COc1ccc(-n2nnnc2SCC#CCO)cc1 | inconclusive [cytotoxic, single point] |  |
| Cc1ccc(C2N(C)C(=O)c3ccccc3N2C)cc1 (stereo not given) | inconclusive [cytotoxic, single point] |  |
| CCc1ccccc1OCC(=O)NCC1COc2ccccc2O1 (stereo not given) | inactive |  |
| O=C(c1ccccc1)c1c2c(cc3sc4ccccc4[n+]13)-c1cccc3cccc-2c13 | inconclusive [cytotoxic, single point] |  |
| COc1ccc(-c2csc(-c3ccc(O)cc3)n2)cc1 | active: 1.64 µM |  |
| Cc1occc1-c1nnc(SCC(=O)Nc2nc(-c3ccccc3)cs2)o1 | inconclusive [cytotoxic, single point] |  |
| O=C(/C=C/c1ccco1)NC(=S)Nc1ccc(O)c(-c2nc3ccccc3s2)c1 | inconclusive [cytotoxic, full curve] |  |
